Test results from PMC6919601, “Identification of Plasmodium dipeptidyl aminopeptidase allosteric inhibitors by high throughput screening” (PLoS ONE, 2019).
Screen size: about 110,000 compounds; about 230 (0.21%) showed an effect of 50% or more. Some of the results follow.

molecular target: DPAP1 (Plasmodium falciparum, UniProt Q8IIJ9); assay: primary screen, percent inhibition; read by cleavage of a fluorogenic dipeptide substrate; higher = more effect of the substance; set-up: species or system P. falciparum D10 trophozoite lysates; single well
Sequence (Q8IIJ9 whole entry, looked up): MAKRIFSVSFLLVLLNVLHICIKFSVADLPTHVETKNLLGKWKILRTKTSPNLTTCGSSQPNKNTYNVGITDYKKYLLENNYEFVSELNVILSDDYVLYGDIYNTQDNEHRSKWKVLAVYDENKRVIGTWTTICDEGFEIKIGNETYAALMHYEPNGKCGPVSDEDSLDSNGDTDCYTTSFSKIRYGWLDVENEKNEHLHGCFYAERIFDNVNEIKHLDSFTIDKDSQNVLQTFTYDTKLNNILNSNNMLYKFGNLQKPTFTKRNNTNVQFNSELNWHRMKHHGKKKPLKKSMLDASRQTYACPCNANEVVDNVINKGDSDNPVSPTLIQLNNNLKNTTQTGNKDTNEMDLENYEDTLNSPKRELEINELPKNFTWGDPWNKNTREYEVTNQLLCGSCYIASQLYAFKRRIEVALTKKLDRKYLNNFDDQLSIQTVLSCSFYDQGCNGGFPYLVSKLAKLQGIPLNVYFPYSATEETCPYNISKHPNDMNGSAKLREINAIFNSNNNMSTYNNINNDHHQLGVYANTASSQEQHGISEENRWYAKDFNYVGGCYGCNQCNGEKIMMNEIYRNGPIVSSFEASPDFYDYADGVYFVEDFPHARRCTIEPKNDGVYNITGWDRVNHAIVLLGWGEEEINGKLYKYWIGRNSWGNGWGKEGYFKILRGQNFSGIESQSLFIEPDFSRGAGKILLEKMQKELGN
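Further: 30 min substrate incubation versus DMSO and 10 µM JCP410 controls.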

SMILES	% Inhibition @ 10 uM [%]
O=C(c1ccc(COCC(F)(F)F)o1)N1CCCCCC1	-4.77
Cc1ccnc(NC(=O)CSc2nnc3c(n2)[nH]c2ccccc23)c1	1.67
CCC1CCc2c(sc(NC(=O)CC(C)(C)C)c2C#N)C1 (centres unmarked)	5.67
Cc1cccc(C(=O)Nc2sc3c(c2C(=O)NCc2ccccc2)CCC3)c1	2.26
Cc1[nH]c2ccccc2c1C(Nc1cccc(F)c1)c1cccnc1 (centres unmarked)	-0.123
COc1ccc(CN2C(=O)S/C(=C/c3ccc(OC)cc3OC)C2=O)cc1	-3.78
CN(c1ccc(C(=O)Nc2ccc(F)cc2)cc1)S(=O)(=O)c1ccccc1	-7.56
O=C(NCCCCc1ccccc1)c1ccccc1Br	3.53
CCCCOc1ccccc1C1C(C(=O)OC)=CNC=C1C(=O)OC	3.04
CCCCCCN1C(=O)C(O)=C(C(C)=O)C1c1ccc2c(c1)OCO2 (centres unmarked)	-1.66
C#CCN1C(=O)S/C(=C/c2cc3c(cc2Cl)OCO3)C1=O	-1.93
Cc1cc(C)c2c(N)c(S(=O)(=O)Cc3ccccc3)sc2n1	5.37
Cc1ccc(NC(=O)COc2ccc(C)cc2C)c(C)c1	4.11
COc1ccc(S(=O)(=O)N2CCCC2C(=O)n2nc(C)cc2C)cc1 (centres unmarked)	0.343
CC(=O)NCC(C)CCC(=O)C(C)C1C(=O)CC2C3CC=C4CC(OC(C)=O)CCC4(C)C3CCC21C (centres unmarked)	-4.96
Nc1nc(-c2cccnc2)nc2c1nnn2Cc1ccccc1Cl	-8.53
COc1ccc(NC(=O)COc2ccc(C(C)C)cc2)cc1Cl	-17
O=C(O)c1nsc(Cl)c1Cl	-0.85
COc1ccc2oc(C(=O)c3ccccc3)c(NC(C)=O)c2c1	-3.77
COc1cc(NC(=O)COc2ccccc2)ccc1Cl	0.35
CN(CCc1ccccc1)Cc1cccnc1	-4.75
CCOc1ccc2nc(C)c(C/C=C(/C)Cl)c(O)c2c1	-3.09
C(=C\c1ccccc1)/CN1CCN(Cc2ccsc2)CC1	-0.261
Cc1ccc(NC(=O)Nc2cccc(C(=O)O)c2)cc1	-1.61
COCCn1c(C)cc(C(=O)C(=O)Nc2nnc(-c3ccccc3)s2)c1C	0.655
COc1cc(/C=C2\S/C(=N/c3ccc(F)cc3)N(C)C2=O)ccc1OC(C)C(=O)O (centres unmarked)	1.28

SMILES	% Inhibition @ 10 uM [%]
NC(=O)NC(=O)Nc1cccc2ccccc12	-3.93
O=S1(=O)CCC(N2CCCCC2)C1 (centres unmarked)	0.0345
CCOC(=O)C1=C(C)N=c2s/c(=C\c3ccc(C)cc3)c(=O)n2C1c1ccc(OC)cc1 (centres unmarked)	-6.88
O=C(O)CNC(=O)c1ccco1	-3.93
CC1(C)CC(=O)c2sc(NC(=O)Cc3ccc(Br)cc3)nc2C1	-2.98
CCc1ccccc1NS(=O)(=O)c1ccc(NC(C)=O)cc1	-4.94
C=C(C)Cn1c(SCC(=O)Nc2ccccc2)nc2c1c(=O)[nH]c(=O)n2C	2.01
COc1ccc(CCN2C(=O)C3C4C=CC(C5CC45)C3C2=O)cc1OC (centres unmarked)	-3.52
O=C(NCCCn1ccnc1)c1cc(-c2ccc(O)cc2)on1	6.87
CCc1ccc2ncc(S(=O)(=O)c3ccccc3)c(N3CCC(C(N)=O)CC3)c2c1	-0.246
Cc1ccc(-n2nc3c(=O)n(CCCC(=O)N4CCN(c5ccccn5)CC4)nc(C)c3c2C)cc1	-6.73
CC(c1ccccc1)C1CC(=O)N(c2ccc(Cl)cc2)C1=O (centres unmarked)	0.392
CC1Cc2nc(SCC(=O)NCc3ccco3)n(CCc3ccccc3)c(=O)c2S1 (centres unmarked)	0.8
Cc1ccc(S(=O)(=O)n2nc(C)c(Sc3ccccc3)c2C)cc1	-2.55
CC1(C)NC(=O)C(C#N)=C(SCc2ccccc2)S1	1.72
Cc1ccc(NC(=O)c2cc3c(Cl)nc4ccccc4c3s2)nc1	4.68
O=C(CSCc1ccc(Cl)cc1)Nc1ccccc1C(=O)O	4.67
Oc1ncnc2sc3c(c12)CCCCC3	-0.693
COc1ccc(OC)c(/C=C2/N=C(c3ccc(OC)c(Br)c3)OC2=O)c1	-2.9
O=C(Nc1cc(C(F)(F)F)ccc1Cl)c1ccc(C(=O)Nc2cc(C(F)(F)F)ccc2Cl)cc1	5.43
Cc1ccc(C(C)C)c(OCC(O)CN2CC(C)OC(C)C2)c1 (centres unmarked)	-1.15
CC(=O)c1cc(C(c2csc(C(C)=O)c2)c2csc(C(C)=O)c2)cs1	-3.95
COCCNCc1c(C(=O)O)n(Cc2ccccc2Cl)c2ccccc12	-8.92
CCCC(=O)Nc1ccc(S(=O)(=O)NC2CCCCC2)cc1	-8.28
CCOc1ccccc1N1CCN(Cc2cccc(Cl)c2)CC1	-0.261
CCOc1ccc(C(=O)C[n+]2ccc(C(=O)NCc3ccccc3)cc2)cc1	5.98

SMILES	% Inhibition @ 10 uM [%]
CCCCN(C)CCNC(=O)c1cnc2ccc(S(=O)(=O)N(CC)CC)cc2c1O	-7.85
CN(C)CCN(Cc1ccccc1)Cc1coc2ccccc2c1=O	-1.5
O/N=C(\Cc1ccccn1)c1ccccc1	-6.11
Cc1cc(O)c2c(C)c(CC(=O)NCc3ccc(Cl)cc3)c(=O)oc2c1	0.895
O=C(c1c[nH]c2ccccc12)C1CCCCC1	-5
CCN1CCN(CC(O)COc2cc(C)ccc2C(C)C)CC1 (centres unmarked)	-0.46
CCCn1c2ccccc2c2cnn(CC(=O)Nc3ccsc3C(=O)OC)c(=O)c21	-0.238
CC(C(=O)N1CCC2(CC1)OCCO2)N1Cc2ccccc2C1=O (centres unmarked)	2.37
CCOc1ccc(CC(=O)N2N=C(C(F)F)CC2(O)C(F)F)cc1OCC (centres unmarked)	-4.72
CCN(CC)Cc1c(O)ccc2occ(C(=O)c3cccs3)c12	5.2
COC(=O)C1=C(C)N(CCC2=CCCCC2)C(=O)/C1=C\c1ccc(C(=O)O)cc1	-1.52
O=C(Nc1ccn(Cc2cccc3ccccc23)n1)c1ccc2c(c1)OCO2	-0.222
Cc1ccc(S(=O)(=O)N2CCN(c3ccccc3C)CC2)cc1	-0.0619
CCc1ccc(N(CC(=O)N(C)C)S(C)(=O)=O)cc1	-2.46
COc1ccc(/C=C2/Sc3ccccc3C2=O)cc1[N+](=O)[O-]	-2.64
CCOc1ccc(-c2nonc2NC(=O)c2cccc(C)c2)cc1OCC	-3.24
Oc1ccc(Nc2nc(-c3cccnc3)cs2)cc1	4.26
CCN(CC)CCCCOc1ccccc1F	-5.26
CC1(C)CC(=O)C2=C(C1)NC(=O)C(C#N)C2c1ccccc1 (centres unmarked)	-1.37
CC1=C(C(=O)Nc2ccccc2C)C(c2ccc(Cl)cc2)NC(S)=N1 (centres unmarked)	1.27
COC(=O)c1ccccc1-n1cc2c(c1-c1ccc(Cl)cc1)c(=O)n(C)c(=O)n2C	2.02
CCOc1cccc(NC(=O)C2CC(=O)N(c3ccc(C)cc3)C2)c1 (centres unmarked)	3.56
CC(=O)c1ccc(N2CCN(Cc3ccoc3)CC2)cc1	-1.41
CCCCNc1nc(Oc2ccc(O)nn2)nc(N(CC)CC)n1	-7.24
Cc1ccc(C2=C/C(=C\c3cccnc3)C(=O)O2)cc1	-5.01
COc1cc(OC)cc(C2C(C#N)=C(N)Oc3c2c(C)nn3-c2ccccc2)c1 (centres unmarked)	2.38

SMILES	% Inhibition @ 10 uM [%]
O=C(Nc1ccccc1)Nc1cc[n+]([O-])c(S(=O)(=O)c2ccccc2)c1	1.82
Cc1ccc(NC(=O)COc2ccc(Cl)cc2Cl)cc1F	-2.03
NC(=O)CSc1nc(N2CCOCC2)nc(N2CCOCC2)n1	-6.02
Cc1ccc(S(=O)(=O)N2CCN(CCOc3ccc(Cl)cc3)CC2)cc1	-3.71
COc1cc(C2C3=C(O)CCCC3=NC(C)=C2C(=O)N2CCCCC2)cc(Cl)c1O (centres unmarked)	0.219
CCOC(=O)C1=CN(C(C)C)C=C(C(=O)OCC)C1c1cccc(O)c1	-1.48
CC(C)(C)OC(=O)NC1(C(=O)NC2(C#N)CC2)CCCCC1	-1.41
Cc1ccc(-c2coc3c2c(C)cc2oc(=O)c(CC(=O)O)c(C)c23)cc1	2.21
FC(F)(F)C1(C(F)(F)F)N=C(COc2ccccc2)NC(c2ccccc2)=N1	-3.53
Cc1nn(C2CCCCC2)c(N)c1C#N	2.16
CC1CCCCC1NC(=O)c1nnc(Cc2ccc(Cl)cc2)o1 (centres unmarked)	-0.999
CCOC(=O)C1CCN(C2CCN(C)CC2)CC1	0.472
O=C(COc1ccc2ccccc2c1)NCc1ccc(-n2cccc2)cc1	-4.04
C/N=C1/S/C(=C\c2cc(C)n(-c3ccccc3F)c2C)C(=O)N1C	-3.04
O=C(C1CC(c2ccc(F)cc2)=NO1)N1CCN(Cc2ccccc2)CC1 (centres unmarked)	-5.79
O=C(Cc1ccc2ccccc2n1)C(F)(F)F	0.0345
Cc1cccc(OCC(=O)Nc2sc3c(c2C(N)=O)CCCC3)c1	2.44
Cc1c(-c2ccccc2)nc2ccccc2c1C(=O)O	-0.687
CCn1cc(C2=NOC(C(=O)Nc3cccnc3Cl)C2)c(C)n1 (centres unmarked)	-1.37
O=C(O)c1ccc(S(=O)(=O)c2ccc3c(c2)C(=O)N(Cc2cccnc2)C3=O)cc1	-3.09
COc1ccc(C(=O)NCC2OCCc3ccccc32)c(OC)c1 (centres unmarked)	-10.9
O=C1Nc2ccccc2C12OCCO2	-2.51
N#Cc1cccnc1Cl	2.34
COCCCNC1CCc2ccccc2C1 (centres unmarked)	2.22
CC(Oc1ccc(C(C)(C)C)cc1)C(=O)N1CCCCCC1 (centres unmarked)	-6.02
Cc1ccc(NC(CC(=O)C2CC2)c2ccccc2)cc1 (centres unmarked)	4.6
